The other results are listed elsewhere or left out. At the low end of the ranking the order means little.

From publication PMC10668032 come the findings set out here.

The assay has as its target SIX1 homeodomain (reference allele) (UniProt Q15475). The assay is described as follows: universal protein binding microarray. The settings on record: Universal all-10-mer PBM (8x60K, AMADID 030236), 300 nM GST-tagged protein, Alexa Fluor 488 anti-GST; buffer, salt, pH and temperature not stated; high values mean tight binding; most listed sequences are background and not binding sites; double strand, one strand shown.
With TACCACCA, the binding signal is 0.11 E-score.
To AGTAGCCC belongs 0.00485 E-score; to GTAATGCA, -0.182 E-score; to CCTTCATA, 0.0288 E-score.
As for ACAATCCA, the figure is 0.0916 E-score.
To AGATCAAA belongs 0.188 E-score; to AACTACGG, -0.0499 E-score; to CTGTATTA, 0.18 E-score.
For the sequence CAAGACTA, the binding signal was -0.16 E-score.
For GATAACTA, the binding signal was 0.154 E-score.
To ACATGAAA belongs -0.14 E-score; to ATTTAAGG, -0.224 E-score.
Regarding ACAGTATC, the binding signal came to 0.402 E-score.
Regarding AATCTCTC, the binding signal is -0.0404 E-score.
As to TGATGAAA, the binding signal was -0.114 E-score.
Turning to CTAGGTCC, the binding signal is -0.159 E-score.
To GGTGACCA belongs -0.244 E-score; to CATGTTAC, -0.133 E-score; to ACCACAAA, -0.00173 E-score.
For AACGCTCC, the binding signal was -0.204 E-score.
In the case of ACCATTAC, the binding signal is -0.0166 E-score.
As to CTTGACCC, the binding signal is -0.178 E-score.
In the case of CTCGACCA, the binding signal was -0.153 E-score.
To ACACCACC belongs 0.293 E-score.
For CCTATGCA, the binding signal was 0.073 E-score.
Turning to ACGCAAAT, the binding signal was -0.12 E-score.
To AATCAAGG belongs 0.0699 E-score; to CCCAAGCC, 0.0122 E-score; to ACTTGGTC, -0.0583 E-score.
CGCAACGA: the binding signal was 0.0268 E-score.
As for CTTGAACC, the binding signal stood at 0.107 E-score.
To AGATAACG belongs 0.191 E-score; to TAAGTAGA, 0.0777 E-score; to CCCGCGCG, -0.209 E-score.
As for TCCAAAAA, the figure is -0.139 E-score; as for GCGGTCCA, -0.155 E-score.
As for ATACTGGG, the figure is 0.225 E-score; as for CTTTTATC, -0.13 E-score.
With AAGGCCAT, the binding signal is -0.209 E-score.
To GGGAGGTA belongs 0.136 E-score; to TAACCGTA, 0.0921 E-score.
Consider AAGGCGAC, for which the binding signal was -0.138 E-score.
For the sequence GAAAGATC, the binding signal was found to be 0.169 E-score.
As for ATGGCCAT, the figure is -0.166 E-score.
As for ATTTAGAG, the binding signal was -0.127 E-score.
For CTGCGGCA, the binding signal was -0.281 E-score.
As for GTATTCAA, the figure is 0.248 E-score; as for GCAATTTA, 0.00713 E-score; as for CCCCTCGA, 0.173 E-score.
On to CCAGTGTA, for which the binding signal was 0.106 E-score.
To AAAGTAGC belongs -0.13 E-score; to ACGGTTAA, -0.187 E-score.
To GGAATGAC belongs -0.0861 E-score; to CTTTCTGA, -0.129 E-score.
Consider CTGGAGGA, for which the binding signal was determined as 0.00889 E-score.
To AGGGGCCC belongs -0.19 E-score; to CGGGAATC, 0.0991 E-score.
For AGATGTTA, the binding signal is -0.0543 E-score.
Regarding GGCGCCAC, the binding signal was -0.363 E-score.
As for ATTCAGCA, the figure is -0.216 E-score.
In the case of CATCGACG, the binding signal was -0.212 E-score.
Take GCCTAATA: the binding signal is 0.167 E-score.
To GCCTTTTA belongs -0.0588 E-score; to ATCATCGG, 0.365 E-score.
To ACGGCTTC belongs -0.158 E-score; to CGCTCTCC, -0.0131 E-score.
As for AGGACAAG, the figure is -0.118 E-score; as for CGCCATAG, 0.0355 E-score.
For AGAGCACT, the binding signal amounted to 0.0687 E-score.
As for CTTACGGC, the figure is -0.249 E-score.
As for CGCATCAC, the figure is -0.0152 E-score.
For CTGTTCCA, the binding signal is -0.259 E-score.
As for AGATTGGG, the figure is 0.0831 E-score.
As for AACGCTAT, the figure is 0.0497 E-score.
To CGTCACTC belongs -0.267 E-score; to ACATAGTG, 0.0165 E-score.
For GTTGAATA, the binding signal was found to be 0.0184 E-score.
As for AAAAGCCG, the figure is -0.0824 E-score; as for GCTCGCCA, -0.202 E-score; as for GATTAGAC, 0.0257 E-score.
As for AGGGAACT, the figure is -0.192 E-score; as for AGACAGAG, -0.0358 E-score.
As for GCGACACA, the figure is -0.0204 E-score.
For CGAGCCAC, the binding signal is -0.0513 E-score.
For the sequence CCGGATAG, the binding signal was determined as 0.361 E-score.
To AGTCGTCC belongs -0.107 E-score.
As for CGTCCGCC, the figure is -0.105 E-score; as for GCCGAAAA, -0.236 E-score; as for AGAACTCG, -0.248 E-score.
As for AGACCAAC, the figure is -0.0455 E-score; as for CCGCCGAG, 0.152 E-score; as for CGGAGGTA, 0.0474 E-score.
With AGTAGGTG, the binding signal came out at 0.0419 E-score.
To GCTGCGCC belongs -0.249 E-score; to AAATCTCG, -0.215 E-score; to TCATCGAA, -0.0315 E-score.
As for GACTATCA, the figure is 0.25 E-score.
As for AGCAACTC, the figure is -0.172 E-score.
Turning to CTGCTAGA, the binding signal is -0.038 E-score.
To GATATCGC belongs 0.468 E-score.
Consider GTCTACAA, for which the binding signal is -0.185 E-score.
As for CAACGCGC, the figure is -0.0748 E-score.
To AACATCCA belongs -0.017 E-score.
To CTAACTGA belongs 0.0348 E-score; to ACAGTAGA, 0.107 E-score.
Turning to GAGTCCCC, the binding signal was -0.0527 E-score.
With CTGCGGTC, the binding signal was -0.179 E-score.
Consider AAAGCCCG, for which the binding signal was -0.218 E-score.
To ACACAGAA belongs -0.149 E-score.
With AACCGCAT, the binding signal was 0.0383 E-score.
